Experimental data published in patent US20180057551A1 (AMYLONIX, published 2018).

Key:
human Aβ1-40 peptide [1] = target: T1, human Aβ1-40 peptide (human, biotin at the C-terminus (flow cytometry, Examples 2-4) or at the N-terminus (SPR, ELISA); unlabeled plus Alexa488/Alexa647-labeled in FCS); assay: SPR Biacore 2000, periplasmic sample over immobilised biotinylated hAβ1-40
T1 construct: synthetic peptide (AnaSpec); one entry for all labelled forms, label named under assay; also called hAβ1-40; Aβ40

[2] = target: T2, anti-ABD goat antibody (produced in-house); assay: SPR Biacore 2000, periplasmic sample over immobilised anti-ABD goat antibody
T2 construct: also called Anti-ABD surface

human Aβ1-40 peptide [3] = target: T1, human Aβ1-40 peptide; assay: ELISA, fusion captured by anti-ABD antibody, biotinylated hAβ1-40 titrated
T1 sequence (peptide, as listed by the source): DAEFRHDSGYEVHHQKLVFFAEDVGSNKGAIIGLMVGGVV

human Aβ1-40 peptide [4] = target: T1, human Aβ1-40 peptide; assay: sandwich ELISA, periplasmic ABD fusion, 2 nM biotinylated hAβ1-40
Method: Half-area 96-well ELISA plates (Costar, cat. no. 3690) were coated at 4° C. overnight with 2 μg/ml of an anti-ABD goat antibody (produced in-house) diluted in coating buffer (50 mM sodium carbonate, pH 9.6; Sigma, cat. no. C3041).

Binder	Response RU (human Aβ1-40 peptide [1])	Response RU [2]	EC50 (human Aβ1-40 peptide [3])	ELISA response (absorbance 450 nm) (human Aβ1-40 peptide [4])
AQHDEALE-[ABPP095]-VDYV-[ABD]-YVPG (designed binder) AQHDEALEAGGERVYLPNLNADQLCAFIRSLEDDPSQSANLLAEAKKLNDAQAPASSSSGSSSSGRASAGGERVYLPNLNADQLCAFIRSLEDDPSQSANLLAEAKKLNDAQAPKVDYVLAEAKVLANRELDKYGVSDYYKNLINNAKTVEGVKALIDEILAALPYVPG	24.6 RU	40.6 RU		
AQHDEALE-[ABPP035]-VDYV-[ABD]-YVPG (designed binder, periplasmic ABD fusion) AQHDEALEAGGEIVYFPNLNAHQLCAFIRSLEDDPSQQANLLAEAKKLNDAQAPASSSSGSSSSGRASAGRERVYLPNLNADQLCAFINSIEDDPSQSANLLAEAKKLNDAQAPKVDYVLAEAKVLANRELDKYGVSDYYKNLINNAKTVEGVKALIDEILAALPYVPG	8.6 RU	31.8 RU		
AQHDEALE-[ABPP049]-VDYV-[ABD]-YVPG (designed binder, periplasmic ABD fusion) AQHDEALEAGGERVYFTNLNADQLCAFIQSLEDDPSQSANLLAEAKKLNDAQAPASSSSGSSSSGRASAGRERVYLPNLNAHQLCAFIRSLEDDPSQQANLLAEAKKLNDAQAPKVDYVLAEAKVLANRELDKYGVSDYYKNLINNAKTVEGVKALIDEILAALPYVPG	13.7 RU	30.6 RU	7.1 nM	
AQHDEALE-[ABPP051]-VDYV-[ABD]-YVPG (designed binder, periplasmic ABD fusion) AQHDEALEAGGEIVYFPNLNADQLCAFIRSLEDDPSQQANLLAEAKKLNDAQAPASSSSGSSSSGRASAGRERVYLPNLNADQLCAFIRSIEDDRSQQANLLAEAKKLNDAQAPKVDYVLAEAKVLANRELDKYGVSDYYKNLINNAKTVEGVKALIDEILAALPYVPG	21.4 RU	51.5 RU	4.6 nM	
AQHDEALE-[ABPP055]-VDYV-[ABD]-YVPG (designed binder, periplasmic ABD fusion) AQHDEALEAGRERVYIPNLNADQLCAFIRSLEDDPSQSANLLAEAKKLNDAQAPASSSSGSSSSGRASAGGEIVYFPNLNADQLCAFIQSLEDDPSQSANLLAEAKKLNDAQAPKVDYVLAEAKVLANRELDKYGVSDYYKNLINNAKTVEGVKALIDEILAALPYVPG	18.2 RU	37 RU	2.8 nM	
AQHDEALE-[ABPP059]-VDYV-[ABD]-YVPG (designed binder, periplasmic ABD fusion) AQHDEALEAGGERVYLPNLNADQLCAFIRSLEDDPSQSANLLAEAKKLNDAQAPASSSSGSSSSGRASAGRERVYLPNLNADQLCAFIQSLEDDPSQSANLLAEAKKLNDAQAPKVDYVLAEAKVLANRELDKYGVSDYYKNLINNAKTVEGVKALIDEILAALPYVPG	15.4 RU	39.5 RU	13 nM	
AQHDEALE-[ABPP064]-VDYV-[ABD]-YVPG (designed binder, periplasmic ABD fusion) AQHDEALEAGGERVYLPNLNADQLCAFIQSLEDDPSQSANLLAEAKKLNDAQAPASSSSGSSSSGRASAGGERVYLPNLNAHQLCAFIQSLEDDPSQSANLLAEAKKLNDAQAPKVDYVLAEAKVLANRELDKYGVSDYYKNLINNAKTVEGVKALIDEILAALPYVPG	12 RU	38.8 RU	4 nM	
AQHDEALE-[ABPP065]-VDYV-[ABD]-YVPG (designed binder, periplasmic ABD fusion) AQHDEALEAGGEIVYFPNLNADQLCAFIRSLEDDPSQQANLLAEAKKLNDAQAPASSSSGSSSSGRASAGRERVYLPNLNADQLCAFIRSLEDDPSQRANLLAEAKKLNDAQAPKVDYVLAEAKVLANRELDKYGVSDYYKNLINNAKTVEGVKALIDEILAALPYVPG	8.4 RU	39.1 RU	13 nM	
AQHDEALE-[ABPP070]-VDYV-[ABD]-YVPG (designed binder, periplasmic ABD fusion) AQHDEALEAGRERVYLPNLNADQLCAFIRSLEDDPSQSANLLAEAKKLNDAQAPASSSSGSSSSGRASAGGERVYLPNLNADQLCAFIQSLEDDPSQSANLLAEAKKLNDAQAPKVDYVLAEAKVLANRELDKYGVSDYYKNLINNAKTVEGVKALIDEILAALPYVPG	16.6 RU	40.7 RU		
AQHDEALE-[ABPP072]-VDYV-[ABD]-YVPG (designed binder, periplasmic ABD fusion) AQHDEALEAGRERVYLPNLNADQLCAFIRSLEDDPSQSANLLAEAKKLNDAQAPASSSSGSSSSGRASAGGEIVYFPNLNADQLCAFIRSLEDDPSQSANLLAEAKKLNDAQAPKVDYVLAEAKVLANRELDKYGVSDYYKNLINNAKTVEGVKALIDEILAALPYVPG	10.1 RU	39.7 RU	8.5 nM	
AQHDEALE-[ABPP078]-VDYV-[ABD]-YVPG (designed binder, periplasmic ABD fusion) AQHDEALEAGRERVYLPNLNAHQLCAFINSLEDDPSQSANLLAEAKKLNDAQAPASSSSGSSSSGRASAGGEIVYLPNLNAHQLCAFIQSLEDDPSQSANLLAEAKKLNDAQAPKVDYVLAEAKVLANRELDKYGVSDYYKNLINNAKTVEGVKALIDEILAALPYVPG	12.5 RU	38.6 RU	30 nM	
AQHDEALE-[ABPP107]-VDYV-[ABD]-YVPG (designed binder, periplasmic ABD fusion) AQHDEALEAGRERVYLPNLNADQLCAFIRSLEDDRSQNANLLAEAKKLNDAQAPASSSSGSSSSGRASAGGEIVYFPNLNADQLCAFIRSLEDDSSQSANLLAEAKKLNDAQAPKVDYVLAEAKVLANRELDKYGVSDYYKNLINNAKTVEGVKALIDEILAALPYVPG	15.6 RU	42.2 RU	4.8 nM	≥ 0.2 AU
AQHDEALE-[ABPP108]-VDYV-[ABD]-YVPG (designed binder, periplasmic ABD fusion) AQHDEALEAGRERVYLRNLNADQLCAFIRSLEDDPSQNANLLAEAKKLNDAQAPASSSSGSSSSGRASAGGEIVYFPNLNAHQLCAFIQSLEDDPSQSANLLAEAKKLNDAQAPKVDYVLAEAKVLANRELDKYGVSDYYKNLINNAKTVEGVKALIDEILAALPYVPG	15.2 RU	41.5 RU	5.8 nM	≥ 0.2 AU
AQHDEALE-[ABPP109]-VDYV-[ABD]-YVPG (designed binder, periplasmic ABD fusion) AQHDEALEAGGERVYLPNLNAHQLCAFIQSLEDDPSQSANLLAEAKKLNDAQAPASSSSGSSSSGRASAGGERVYLPNLNAHQLCAFIRSLEDDPSQSANLLAEAKKLNDAQAPKVDYVLAEAKVLANRELDKYGVSDYYKNLINNAKTVEGVKALIDEILAALPYVPG	20.2 RU	42 RU	5 nM	≥ 0.2 AU
AQHDEALE-[ABPP110]-VDYV-[ABD]-YVPG (designed binder, periplasmic ABD fusion) AQHDEALEAGRERVYLPNLNAHQLCAFIRSLEDDPSQSANLLAEAKKLNDAQAPASSSSGSSSSGRASAGGERVYLPNLNADQLCAFIRSLEDDPSQSANLLAEAKKLNDAQAPKVDYVLAEAKVLANRELDKYGVSDYYKNLINNAKTVEGVKALIDEILAALPYVPG	13.8 RU	37.5 RU		≥ 0.2 AU
AQHDEALE-[ABPP111]-VDYV-[ABD]-YVPG (designed binder, periplasmic ABD fusion) AQHDEALEAGRERVYFPNLNADQLCAFIQSLEDDPSQNANLLAEAKKLNDAQAPASSSSGSSSSGRASAGGERVYFPNLNADQLCAFIRSLEDDSSQSANLLAEAKKLNDAQAPKVDYVLAEAKVLANRELDKYGVSDYYKNLINNAKTVEGVKALIDEILAALPYVPG	14.2 RU	35.6 RU	14 nM	≥ 0.2 AU
AQHDEALE-[ABPP112]-VDYV-[ABD]-YVPG (designed binder, periplasmic ABD fusion) AQHDEALEAGGEMVYLPNLNAHQLCAFIRSLEDDPSQSANLLAEAKKLNDAQAPASSSSGSSSSGRASAGGEIVYLPNLNADQLCAFIQSLEDDPSQSANLLAEAKKLNDAQAPKVDYVLAEAKVLANRELDKYGVSDYYKNLINNAKTVEGVKALIDEILAALPYVPG	12.1 RU	48.1 RU	4.6 nM	≥ 0.2 AU
AQHDEALE-[ABPP114]-VDYV-[ABD]-YVPG (designed binder, periplasmic ABD fusion) AQHDEALEAGGERVYFPNLNADQLCAFIRSLEDDPSQSANLLAEAKKLNDAQAPASSSSGSSSSGRASAGGERVYLPNLNADQLCAFIRSLEDDPSQSANLLAEAKKLNDAQAPKVDYVLAEAKVLANRELDKYGVSDYYKNLINNAKTVEGVKALIDEILAALPYVPG	34.1 RU	50.9 RU		≥ 0.2 AU
AQHDEALE-[ABPP138]-VDYV-[ABD]-YVPG (designed binder, periplasmic ABD fusion) AQHDEALEAGGEMVYLPNLNADQLCAFINSLEDDPSQSANLLAEAKKLNDAQAPASSSSGSSSSGRASAGGEIVYFPNLNAHQLCAFIRSLEDDPSQSANLLAEAKKLNDAQAPKVDYVLAEAKVLANRELDKYGVSDYYKNLINNAKTVEGVKALIDEILAALPYVPG	10.1 RU	37.8 RU		≥ 0.2 AU
AQHDEALE-[ABPP141]-VDYV-[ABD]-YVPG (designed binder, periplasmic ABD fusion) AQHDEALEAGGEIVYFPNLNAHQLCAFIQSLEDDPSQNANLLAEAKKLNDAQAPASSSSGSSSSGRASAGGERVYFPNLNADQLCAFIRSLEDDSSQSANLLAEAKKLNDAQAPKVDYVLAEAKVLANRELDKYGVSDYYKNLINNAKTVEGVKALIDEILAALPYVPG	10.5 RU	31.5 RU		≥ 0.2 AU
AQHDEALE-[ABPP142]-VDYV-[ABD]-YVPG (designed binder, periplasmic ABD fusion) AQHDEALEAGRERVYLPNLNAHQLCAFIQSLEDDPSQSANLLAEAKKLNDAQAPASSSSGSSSSGRASAGGEIVYFPNLNADQLCAFIQSLEDDPSQSANLLAEAKKLNDAQAPKVDYVLAEAKVLANRELDKYGVSDYYKNLINNAKTVEGVKALIDEILAALPYVPG	9.5 RU	32.2 RU		≥ 0.2 AU
